Paper PMC12040169 (PLOS Biology, 2025)
The other results are listed elsewhere or left out.

Each compound was assayed on T1, C. trachomatis L2/434/Bu expressing GFP (CTL2-GFP). Details: total inclusion area; 28.5 h, 10 µM; inhibitor.
T1 construct: L2/434/Bu GFP intracellular growth in HeLa cells
Set-up: species or system HeLa; C. trachomatis total inclusion area by high-content imaging, normalised to DMSO
In short: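 Following bulk GFP and resorufin fluorescence reads, infected cells were fixed, Hoechst-stained and imaged on a high-content platform. Inclusion total area and number per well served as growth proxies; nuclei counts indicated host viability. MICs were derived as for the fluorescence assay.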

**Q.** How did the “% of control remaining” value turn out when `CCOc1ccccc1NC(=O)c1cc(CC(C)C)oc1C` [CBK057904] was run?
**A.** 75.114

**Q.** With `COC(=O)COc1ccc(C(NC(=O)c2ccccc2)C(Cl)(Cl)Cl)cc1` (stereo not drawn) [CBK265437] as the compound, how does the “% of control remaining” value read?
**A.** 80.6286

**Q.** Which “% of control remaining” value does the source give for `O=C1CNC(=O)C2(C/C=C/C[C@H]3COCC[C@H]3N1)CCN(Cc1ccc(F)cn1)CC2` [CBK292160] here?
**A.** 112.093

**Q.** How did the “% of control remaining” value turn out when `CCn1c2cc(C)oc2c2cn[nH]c(=O)c21` [CBK284230] was run?
**A.** 47.2838

**Q.** With `CCOc1ccc(-n2c(SC/C=C/c3ccccc3)nnc2-c2cccnc2)cc1` [CBK266222] as the compound, how does the “% of control remaining” value read?
**A.** 94.9951

**Q.** With `CC(O)(CC(=O)O)CC(=O)OCCc1ccc2c(c1)CCC2` (stereo not drawn) [CBK017766] as the compound, how does the “% of control remaining” value read?
**A.** 57.2937

**Q.** For `OCCN(CCO)CC1CC=CCC1` (stereo not drawn) [CBK261907], which “% of control remaining” value is on record?
**A.** 92.9305

**Q.** For `CCOC(=O)c1cnc(NS(=O)(=O)c2cccc(Cl)c2C)nc1C` [CBK004707], which “% of control remaining” value is on record?
**A.** 98.5068

**Q.** `OCCNc1nccnc1-c1ccoc1` [CBK036580] was tested. Which “% of control remaining” value did it give?
**A.** 78.0867

**Q.** For `CCCc1[nH]nc(O)c1CCc1ccc(OC)cc1OC` [CBK081123], which “% of control remaining” value is on record?
**A.** 78.8973

**Q.** With `COc1cccc(-c2cncc(C3CCN(C(=O)CCOc4ccccc4)CC3)n2)c1` [CBK286153] as the compound, how does the “% of control remaining” value read?
**A.** 92.778

**Q.** How did the “% of control remaining” value turn out when `CCOc1cc2c(cc1CN1CCN(Cc3noc(C)n3)CC1)CCC2` [CBK307138] was run?
**A.** 76.7034

**Q.** Which “% of control remaining” value does the source give for `COc1cccc(CNCC(c2ccnn2C)C(C)C)n1` (stereo not drawn) [CBK304858] here?
**A.** 50.4916

**Q.** For `Oc1cc(-c2ccccc2)nc(NNc2ccccc2)n1` [CBK261716], which “% of control remaining” value is on record?
**A.** 69.3687

**Q.** How did the “% of control remaining” value turn out when `CCCS(=O)(=O)c1ccc2[nH]c(NC(=O)c3cnc(-c4ccccc4)c(-c4ccncc4)c3)nc2c1` [CBK037426] was run?
**A.** 74.9376

**Q.** Which “% of control remaining” value does the source give for `O=C(NCC(O)c1ccc([N+](=O)[O-])cc1)c1cccc(S(=O)(=O)N2CCCC2)c1` (stereo not drawn) [CBK268847] here?
**A.** 94.7713

**Q.** How did the “% of control remaining” value turn out when `O=C(Cn1cc(/C=C/c2[nH]c(=O)[nH]c(=O)c2[N+](=O)[O-])c2ccccc21)Nc1ccc2c(c1)OCO2` [CBK267036] was run?
**A.** 122.367

**Q.** Which “% of control remaining” value does the source give for `O=C1/C(=N\O)c2cc(Cl)ccc2N1Cc1ccccc1` [CBK288468] here?
**A.** 27.8754

**Q.** With `CN1CCN(C(=O)Nc2ccc(Cc3ccc(NC(=O)N4CCN(C)CC4)cc3)cc2)CC1` [CBK264852] as the compound, how does the “% of control remaining” value read?
**A.** 86.9263

**Q.** For `Cc1csc(C(Cc2cccs2)NC(=O)C2CCOC2)n1` (stereo not drawn) [CBK285123], which “% of control remaining” value is on record?
**A.** 74.9291

**Q.** For `Cc1nc(C)n(CC2CCCN(Cc3cc(C#N)cs3)C2)n1` (stereo not drawn) [CBK304787], which “% of control remaining” value is on record?
**A.** 44.3416

**Q.** `Cc1n[nH]nc1C(=O)N(C)CC(C)Oc1ccc(Cl)c(Cl)c1` (stereo not drawn) [CBK306173] was tested. Which “% of control remaining” value did it give?
**A.** 62.9691

**Q.** Which “% of control remaining” value does the source give for `COc1ccc(F)c(CN(CC2CCNCC2)C(=O)Nc2c(F)cccc2F)c1` [CBK049804] here?
**A.** 88.4175

**Q.** How did the “% of control remaining” value turn out when `COc1ccc(C)cc1CN(C)C(=O)c1cccc(NC(=O)C2CC2)c1` [CBK305414] was run?
**A.** 107.52

**Q.** `COc1ccc(S(=O)(=O)N(C)CC(=O)Nc2ccc(S(N)(=O)=O)cc2)cc1C` [CBK267333] was tested. Which “% of control remaining” value did it give?
**A.** 97.936

**Q.** With `CC(C)c1nc2c(c(=O)c3ccccc3n2C)c(=O)n1-c1ccccc1` [CBK287947] as the compound, how does the “% of control remaining” value read?
**A.** 95.4763

**Q.** `O=C(Nc1ccccc1)N[C@H]1CO[C@H]2[C@@H]1OC[C@H]2OCc1ccccc1` [CBK289488] was tested. Which “% of control remaining” value did it give?
**A.** 102.622

**Q.** For `O=C(NCc1ccc(F)cc1)N(Cc1cccc(Cl)c1)CC1CCNCC1` [CBK119479], which “% of control remaining” value is on record?
**A.** 85.0191

**Q.** For `CCOC(=O)NC(NCc1ccco1)(C(F)(F)F)C(F)(F)F` [CBK057654], which “% of control remaining” value is on record?
**A.** 49.4619

**Q.** For `CN1CCN(CC(CC(=O)Nc2c(F)cccc2F)C(=O)O)CC1` (stereo not drawn) [CBK286867], which “% of control remaining” value is on record?
**A.** 81.6904

**Q.** For `O=C(c1ccco1)c1cnc2ccccn2c1=O` [CBK010791], which “% of control remaining” value is on record?
**A.** 68.4787

**Q.** For `O=C(c1cccs1)N1CCC(c2onc3c2CCCC3)CC1` [CBK285181], which “% of control remaining” value is on record?
**A.** 95.2991

**Q.** `Cc1cccc(OCCSc2nc3c(N)ncn(Cc4ccccc4)c-3n2)c1` [CBK266843] was tested. Which “% of control remaining” value did it give?
**A.** 93.9485

**Q.** Which “% of control remaining” value does the source give for `CC(C)NS(=O)(=O)c1ccc(NC(=O)COc2ccc3ccccc3c2Br)cc1` [CBK267920] here?
**A.** 98.2965

**Q.** With `N#Cc1cccc(C(=O)N2CCC3(CCN(C(=O)c4cc(F)c(F)cc4F)C3)C2)c1` (stereo not drawn) [CBK131387] as the compound, how does the “% of control remaining” value read?
**A.** 103.659

**Q.** `COc1cc(Nc2nc(-c3cccc(OC(F)(F)F)c3)cn3ccnc23)cc(OC)c1OC` [CBK038036] was tested. Which “% of control remaining” value did it give?
**A.** 72.8405

**Q.** `O=C(O)CCC(=O)N1N=C(c2c(-c3ccccc3)c3cc(Br)ccc3[nH]c2=O)CC1c1ccc([N+](=O)[O-])cc1` (stereo not drawn) [CBK267543] was tested. Which “% of control remaining” value did it give?
**A.** 114.847

**Q.** For `O=[N+]([O-])c1ccc(NCCNC(=S)Nc2ccc(Cl)cc2)nc1` [CBK263594], which “% of control remaining” value is on record?
**A.** 82.2521

**Q.** With `O=C(O)c1ccc(OCc2n[nH]c(=S)n2-c2ccc(Cl)cc2)cc1` [CBK014317] as the compound, how does the “% of control remaining” value read?
**A.** 92.9326

**Q.** How did the “% of control remaining” value turn out when `CCOc1ccc(NC(=O)c2ccc(CN3CCOCC3)cc2)cc1` [CBK033557] was run?
**A.** 84.8414

**Q.** `CCCc1cc(C(=O)OC)c(NC(=O)CC2Nc3ccccc3NC2=O)s1` (stereo not drawn) [CBK269451] was tested. Which “% of control remaining” value did it give?
**A.** 80.674

**Q.** With `Cc1ccc(OCCCCNCCN)c(Br)c1` [CBK265099G] as the compound, how does the “% of control remaining” value read?
**A.** 102.154

**Q.** Which “% of control remaining” value does the source give for `Cc1ccc(OCC(=O)N2CCCCC2c2nccs2)cc1` (stereo not drawn) [CBK305091] here?
**A.** 98.4007

**Q.** How did the “% of control remaining” value turn out when `CCC(NC(=O)Nc1cc(N2CCOCC2)ccc1Cl)c1cnn(C)c1` (stereo not drawn) [CBK306844] was run?
**A.** 77.8274

**Q.** With `CC1CC1C(=O)NCCN1CCC(O)(c2ccc(F)cc2)CC1` (stereo not drawn) [CBK283168] as the compound, how does the “% of control remaining” value read?
**A.** 87.8623

**Q.** `CCn1ncc(CN2C3CCC2CC(O)(c2ccc(F)cc2)C3)c1C` (stereo not drawn) [CBK282973] was tested. Which “% of control remaining” value did it give?
**A.** 100.127

**Q.** With `CC1(C)CC(=O)c2cnc3cc(-c4ccco4)nn3c2C1` [CBK283142] as the compound, how does the “% of control remaining” value read?
**A.** 95.4614

**Q.** Which “% of control remaining” value does the source give for `Cc1nn(C(C)C)c(C)c1CN(CCCN(C)C)Cc1ccco1` [CBK282978] here?
**A.** 118.302

**Q.** With `COc1ccc(S(=O)(=O)N(C)CC(=O)Nc2ccc(C(N)=O)cc2)cc1C` [CBK267278] as the compound, how does the “% of control remaining” value read?
**A.** 92.6978

**Q.** For `Cn1ncnc1CCNS(=O)(=O)c1cccc(C(=O)N2CCCCC2)c1` [CBK306731], which “% of control remaining” value is on record?
**A.** 47.7866

**Q.** `O=c1[nH]c(=O)c2cc(S(=O)(=O)NCC3(N4CCOCC4)CCCCC3)ccc2[nH]1` [CBK286390] was tested. Which “% of control remaining” value did it give?
**A.** 89.2947
